Results as given in PMC6919601, “Identification of Plasmodium dipeptidyl aminopeptidase allosteric inhibitors by high throughput screening” (PLoS ONE, 2019).
Among all 110,000 compounds or so, about 230 (0.21%) showed an effect of 50% or more. Some of the results follow.

Biological target: DPAP1 (Plasmodium falciparum, UniProt Q8IIJ9)
Test: primary screen, percent inhibition; read by cleavage of a fluorogenic dipeptide substrate; higher = more effect of the substance
Set-up: species or system P. falciparum D10 trophozoite lysates; single well
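Further: 30 min substrate incubation versus DMSO and 10 µM JCP410 controls.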

DPAP1, sequence (Q8IIJ9 whole entry, looked up): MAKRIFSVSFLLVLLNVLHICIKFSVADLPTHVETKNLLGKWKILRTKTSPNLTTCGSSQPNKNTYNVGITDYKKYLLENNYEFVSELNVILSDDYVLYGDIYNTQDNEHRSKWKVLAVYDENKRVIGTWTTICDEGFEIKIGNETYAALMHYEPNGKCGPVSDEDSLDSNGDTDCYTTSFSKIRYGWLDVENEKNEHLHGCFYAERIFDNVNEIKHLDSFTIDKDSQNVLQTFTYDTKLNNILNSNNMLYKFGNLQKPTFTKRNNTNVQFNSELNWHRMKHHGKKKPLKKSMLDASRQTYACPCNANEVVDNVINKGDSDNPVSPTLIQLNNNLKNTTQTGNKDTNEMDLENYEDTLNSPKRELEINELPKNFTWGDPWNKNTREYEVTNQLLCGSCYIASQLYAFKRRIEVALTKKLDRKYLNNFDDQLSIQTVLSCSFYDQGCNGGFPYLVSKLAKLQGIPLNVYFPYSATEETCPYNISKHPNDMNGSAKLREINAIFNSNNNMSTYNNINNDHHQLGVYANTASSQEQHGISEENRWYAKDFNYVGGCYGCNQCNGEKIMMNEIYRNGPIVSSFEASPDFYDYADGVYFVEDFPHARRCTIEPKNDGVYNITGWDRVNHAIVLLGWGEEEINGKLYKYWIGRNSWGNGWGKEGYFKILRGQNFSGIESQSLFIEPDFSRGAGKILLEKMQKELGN

Compound	% Inhibition @ 10 uM [%]
Cc1ccccc1OCC(=O)Nc1nn2c(-c3ccco3)nnc2s1	-2.79
CC(C)Sc1nn2c(=O)cc(CSc3nnc(N)s3)nc2s1	-3.95
Cc1ccc(C)n1-c1ccc(Oc2ccc(-n3c(C)ccc3C)cc2)cc1	-4.06
Nc1ccc(O)c2c1C(=O)c1c(O)ccc(N)c1C2=O	-7.25
CCC(C)NCc1c(C(=O)O)n(Cc2cccc(C)c2)c2ccccc12 (stereo not drawn)	3.54
O=C(COc1ccccc1)NCCc1nc2ccccc2[nH]1	-5.38
CCC1(CC)C(=O)N(C)C(=O)N=C1N(C)C	1.9
CC(C)C[C@H](NC(=O)c1c(F)ccc(F)c1F)C(=O)NCC#N	-3.04
CN(c1ccccc1C(=O)NC(C)(C)C)S(C)(=O)=O	-8.41
Cc1ccc(S(=O)(=O)CC(Cn2nc(Cl)nc2Cl)n2nc(Cl)nc2Cl)cc1 (stereo not drawn)	0.147
Cc1ccc(NC(=O)C2CC2)c(NC(=O)C2CC2)c1	0.777
Cc1cc(C(=O)NCc2ccc3c(c2)OCO3)c2c(C)nn(-c3ccccc3)c2n1	-1.3
O=C(O)C1C2CCC(C2)C1C(=O)Nc1cc(F)ccc1F (stereo not drawn)	-5.98
CCSC1=C(C#N)C(c2ccc(O)cc2)C(C(=O)Nc2ccccc2)=C(C)N1 (stereo not drawn)	7.11
O=C(O)[C@@H]1CSC(c2cccc([N+](=O)[O-])c2)N1 (stereo partly drawn)	-2.51
COc1ccc(C(=O)NCc2nnc(SCC(=O)NCc3ccco3)o2)cc1	6.1
Clc1ccc(OCCCCCN2CCCC2)cc1	6.14
CCOC(=O)C1=C(C)OC(N)=C(C#N)C12C(=O)Nc1ccc(Br)cc12 (stereo not drawn)	-0.233
CCOc1nc(N2CCCCC2)nc(-n2cc(-c3ccccc3)nn2)n1	4.32
CCc1nn(C(C)C(=O)NCCCN(C)Cc2ccccc2)c(=O)c2cc3occc3n12 (stereo not drawn)	-0.281
COc1ccc(-c2noc(CNC3CCCCC3)n2)cc1OC	1.38
Cc1c(Cl)cccc1-c1ccc(CNCCNC(=O)c2nonc2N)o1	-3.49
O=C(C1=C(O)C(=O)N(CCCn2ccnc2)C1c1ccccn1)c1ccccc1 (stereo not drawn)	-1.36
Cc1nn(CC(=O)NC(C)c2ccc3c(c2)OCCO3)c(=O)c2cccn12 (stereo not drawn)	-11.1
N#CC1=C(N)OC2=C(C(=O)CC(c3cccs3)C2)C1c1ccccc1 (stereo not drawn)	-1.08

Compound	% Inhibition @ 10 uM [%]
CCOc1ccc2nc(N3CCCC(C(=O)N4CCc5ccccc5C4)C3)sc2c1 (stereo not drawn)	1.8
COc1ccc(N2C(C(C)=O)=NN(c3ccccc3)C2c2cccs2)cc1 (stereo not drawn)	-1.32
Cc1cc(C)nc(SCc2nnc(SCC(N)=O)n2CCc2ccccc2)n1	2.5
O=C(Nc1ccccc1)Nc1ccc(Br)c(Cl)c1	-4.71
CCOC(=O)c1c(N)sc2c1CCN(C)C2	-2.48
COc1cc(OC)c(OC)cc1CN1CCSCC1	-4.61
COc1ccc(C2=NN(C(=O)CCC(=O)O)C(c3ccc(C)cc3)C2)cc1 (stereo not drawn)	-8.16
CC1(c2ccc3ccccc3c2)C(=O)c2ccccc2C1=O	1.26
CC1(C)CC(=O)C2=C(C1)OC(N)=C(C#N)C2c1ccc(F)cc1F (stereo not drawn)	-2.51
C=CCNC1=C(Cl)C(=O)N(c2ccccc2Cl)C1=O	4
Cc1cc(OC(C)c2nc(-c3nonc3N)no2)ccc1Cl (stereo not drawn)	3.17
CNCCc1c(-c2ccccc2)n(-c2ccccc2)c2ccccc12	7.96
COc1ccc2nc(NC(=O)C3CCCN3S(=O)(=O)c3cccc4nsnc34)sc2c1 (stereo not drawn)	4.54
COc1ccc(C2=NOC(C(=O)N3CCCCC3C)C2)cc1 (stereo not drawn)	9.05
COc1ccc(C(=O)Nc2cc3c(ccc4ccccc43)oc2=O)cc1OC	0.997
O=C(NCC1CCCO1)c1ccccc1Br (stereo not drawn)	6.6
CCCCNc1nc(OC(C(F)(F)F)C(F)(F)F)nc(N2CCNCC2)n1	12
COCCn1c(SCC(=O)Nc2nc3ccc(C)cc3s2)nc2c(c1=O)SCC2	-1.62
O=C(c1ccc(CN2CCOCC2)cc1)N1CCCC1	-1.99
CCOc1ccc(C(=O)C2=C(O)C(=O)N(CCN(C)C)C2c2ccc(OC)cc2)c(C)c1 (stereo not drawn)	-1.93
CC(C)(C)Nc1nc(Cl)nc(Nc2ccccc2)n1	-0.215
CC(C)N(Cc1nc(-c2ccccc2)no1)C(=O)C1CCCCC1	-4.94
Cc1ccc(Cn2ccc(NC(=O)c3ccc(F)c(F)c3)n2)cc1	-12.1
COc1cccc(C2=N/C(=C\c3cccc(Cl)c3Cl)C(=O)O2)c1	6.2
COc1ccccc1-c1cc(C(=O)Nc2cccnc2Cl)no1	2.01

Compound	% Inhibition @ 10 uM [%]
COc1ccc(CNC2=NC(=O)CC(C(=O)Nc3ccc(Cl)cc3)S2)cc1 (stereo not drawn)	0.161
O=c1c2cc(-c3ccccc3)sc2nnn1CCOc1ccccc1	5.54
COc1ccc(N2CCN(S(=O)(=O)c3ccc(OC)c(Cl)c3Cl)CC2)cc1	2.42
CCOc1cc2c(cc1OCC)C(c1ccc(O)cc1)NCC2 (stereo not drawn)	2.02
O=C(CNC(=S)N(CCCN1CCOCC1)Cc1cccs1)NCc1ccc(F)cc1	-7.43
CCOC(=O)N1CCN(c2c(NCCc3cccc(C)c3)c(=O)c2=O)CC1	-1.44
CC[C@H](C)[C@H](NC(=O)c1cccc(F)c1)C(=O)N[C@@H](CCc1ccccc1)C(=O)COCc1ccccc1	-2.35
COc1ccc(CCNC(=O)c2ccc(C(C)C)cc2)cc1	4.81
Nc1nc(C(=O)O)nn1C12CC3CC(CC(C3)C1)C2	-0.185
CC(=O)N1CC2(c3ccccc3)CN(C(C)=O)CC(c3ccccc3)(C1)C2=O	11.5
Cc1ccc(OCC(=O)Nc2ccc(F)cc2F)cc1	1.04
NC(=O)c1c(NC(=O)Cn2nc(C(F)(F)F)cc2C2CC2)sc2c1CCCC2	2.4
Cc1ccc(C)c(CN2CCC(O)(c3ccc(Cl)cc3)CC2)c1	4.68
CC(NC(=O)C1CCN(c2nc3cc(Cl)ccc3s2)CC1)c1ccccc1 (stereo not drawn)	2.79
COc1ccc2[nH]c3c(=O)n(N)c(=S)[nH]c3c2c1	-3.85
CC1=C(C(=O)Nc2cccc(C)c2C)C(c2ccc(Br)cc2)NC(=O)N1 (stereo not drawn)	-2.6
COC(=O)c1c(NC(=O)c2nc(S(=O)(=O)Cc3ccccc3)ncc2Cl)sc2c1CCC2	-2.71
CC(C)CC(C(=O)NCC#N)c1cccc(-c2ccc(-c3ccno3)cc2)c1 (stereo not drawn)	1.7
COc1ccc(C2=NN(C(=O)CSc3nncn3C)C(c3cccc(OC)c3OC)C2)cc1 (stereo not drawn)	0.279
O=C(NCc1ccccc1)N1CCN2CCCCC2C1 (stereo not drawn)	-6.13
O=C(c1ccc(C(=O)N2CCCCCC2)cc1)N1CCCCCC1	3.32
CC(=O)Nc1nonc1NC(=O)c1sc2ccccc2c1Cl	-4.11
COCCCn1c(-c2ccc(F)cc2)cn2c3c(=O)n(C)c(=O)n(C)c3nc12	3.26
O=C(NCc1ccccc1)c1ccc2c(c1)sc1nc(-c3ccccc3)cn12	-0.361
Cc1cc(C(=O)N2CCN(C(=O)c3ccco3)CC2)c2c(C)nn(-c3ccccc3)c2n1	5.13

Compound	% Inhibition @ 10 uM [%]
COc1ccc(Cn2ccc3nc(C)c(C(=O)NCc4ccco4)cc3c2=O)cc1	-3.04
O=C(CSc1nccc(O)n1)Nc1nonc1-n1cccc1	-4.49
CCN1CCN(Cc2nc3c(c(=O)n(C)c(=O)n3C)n2CCOC)CC1	-1.43
COc1cccc(CNC(=O)c2cnn3c(C(F)(F)F)cc(-c4cccs4)nc23)c1	-2.36
CCOc1ccc(C2=CC(c3ccccc3OC(F)F)n3ncnc3N2)cc1Cl (stereo not drawn)	3.32
Cc1ccc2sc(-c3ccc(NC(=O)c4ccc([N+](=O)[O-])cc4)cc3)nc2c1	-0.546
Cc1nnc(SCC(=O)NCCc2ccccc2)c2cc3sccc3n12	-9.51
COc1cc2ncc(C(=O)c3ccc(C)c(C)c3)c(N3CCOCC3)c2cc1OC	-5.03
CCCc1[nH]nc2c1C(c1cccc(Br)c1)C(C#N)=C(N)O2 (stereo not drawn)	1.82
CCCCOc1ccc(/C=c2\sc3ncnn3c2=O)cc1	0.273
Cc1ccc(Cl)cc1N1CCN(C(=O)c2c(F)cccc2F)CC1	0.528
COc1ccccc1Nc1nc(N)nc(CSc2ncccn2)n1	-0.519
Cc1cc2nc(NC(=O)c3ccco3)sc2cc1C	-4.02
O=C(NCc1ccccn1)c1ccc(Br)cc1	0.937
CC(C)OCCCn1c(=O)c2ccccc2n2c(-c3ccc(C(F)(F)F)cc3)nnc12	-1.72
CCN(CC)CCNC(=O)CCc1nnc2n(CCc3ccccc3)c(=O)c3ccccc3n12	-4.21
Cc1ccc(C(C)C)c(OCC(=O)Nc2cccc(Cl)c2C)c1	1.14
Cc1ccc(/C=c2\sc3nc(-c4ccccc4C)nn3c2=O)o1	-1.18
COc1ccc(CNC(=O)CN(C)S(=O)(=O)c2ccc(-c3ccc(O)nn3)s2)cc1	-2.16
Cc1ccc(-c2nn(CCC(=O)NCC3CCCO3)c(=O)c3ccccc23)cc1 (stereo not drawn)	-2.98
CC(C)(C)NCC(O)COc1ccc(C23CC4CC(CC(C4)C2)C3)cc1 (stereo not drawn)	-2.55
O/C(=C\c1nc2ccccc2[nH]1)c1cc(Cl)c(O)cc1O	-2.91
CC1CC(C)CN(CCCNC(=O)c2ccc(CS(=O)(=O)Cc3ccccc3F)o2)C1 (stereo not drawn)	-0.971
COc1ccc(CCNc2ncnc3onc(-c4ccc(Cl)cc4)c23)cc1OC	-2.19
